Columns and labels:
[1] = molecular target: T1, biglycan from bovine articular cartilage (Sigma) (bovine, UniProt P21809 38-369, proteoglycan; glycosaminoglycan chains on the core protein (sites not stated for this preparation)); assay: solid phase binding assay, coated biglycan, 0.25 nM mWISP-1-IgG, OD 450 nm
T1 sequence (looked up): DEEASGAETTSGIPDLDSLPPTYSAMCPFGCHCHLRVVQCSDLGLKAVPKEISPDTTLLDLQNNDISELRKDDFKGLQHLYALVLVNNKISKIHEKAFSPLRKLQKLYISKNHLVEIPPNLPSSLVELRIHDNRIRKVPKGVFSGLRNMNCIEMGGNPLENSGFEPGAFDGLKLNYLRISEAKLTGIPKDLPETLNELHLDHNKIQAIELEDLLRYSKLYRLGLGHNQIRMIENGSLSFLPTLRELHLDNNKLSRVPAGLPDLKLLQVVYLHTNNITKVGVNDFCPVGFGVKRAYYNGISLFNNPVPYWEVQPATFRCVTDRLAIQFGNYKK
Description: (§1) FIGS. 5A-5B show WISP-1 binding to decorin and biglycan. In 5A, microtiter wells were coated with serial dilutions of decorin (filled circles) or biglycan (empty circles). Non-specific binding sites were saturated and 0.25 nM of mWISP-1-IgG was incubated for 2 hours. The wells were washed and incubated with horseradish peroxidase conjugated anti-human IgG Fc′ (2 μg/ml) for 1 hour. After 6 washes with PBS containing 0.05% Tween-20, a signal was developed by the incubation of a chromogenic substrate. The color development was stopped by the addition of 1 M phosphoric acid and the O.D. at 450 nm was measured. In 5B, fifty milliliters of human skin fibroblast conditioned media were coated in wells of microtiter plates. Non-specific binding sites were saturated and 0.25 nM of WISP-1-IgG was incubated in the presence of various concentrations of decorin (filled circles) or biglycan (empty circles) for 2 hours. The binding of mWISP-1-IgG was evaluated as described in 5A.
(§2) Decorin and biglycan were coated to microtiter wells overnight. Non-specific binding sites were saturated and 0.25 nM of mWISP-1-IgG was incubated for 2 hours. The wells were washed and incubated with horseradish peroxidase conjugated anti-human IgG Fc′ (2 μg/ml) for 1 hour. […] The color development was stopped by the addition of 1 M phosphoric acid and the O.D. at 450 nm was measured.

[2] = molecular target: decorin from bovine articular cartilage (Sigma) (bovine, UniProt P21793 31-360, proteoglycan; dermatan sulfate glycosaminoglycan chain on the core protein (site not stated for this preparation)); assay: solid phase binding assay, coated decorin, 0.25 nM mWISP-1-IgG, OD 450 nm
Description: as §1, §2

Chain of UniProt P21793 (P21793 31-360 limits assumed): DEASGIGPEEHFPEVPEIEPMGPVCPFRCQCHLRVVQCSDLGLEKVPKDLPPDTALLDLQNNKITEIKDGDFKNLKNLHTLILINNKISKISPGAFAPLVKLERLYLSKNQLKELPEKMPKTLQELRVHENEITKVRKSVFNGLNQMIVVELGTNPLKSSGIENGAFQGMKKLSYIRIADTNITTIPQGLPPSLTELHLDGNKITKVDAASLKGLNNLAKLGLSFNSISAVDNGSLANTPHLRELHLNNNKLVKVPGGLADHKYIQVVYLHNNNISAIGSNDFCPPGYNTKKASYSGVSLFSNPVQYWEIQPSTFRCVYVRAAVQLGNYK

binding result [1]: binds
binding result [2]: binds
B1: mouse WISP-1-IgG (chimeric recombinant mouse WISP-1 bearing a human immunoglobulin Fc fragment tag) (Fc fusion)
chain: TALSPTPTTMTFTPAPLEETTTRPEFCKWPCECPQSPPRCPLGVSLITDGCECCKICAQQLGDNCTEAAICDPHRGLYCDYSGDRPRYAIGVCAQVVGVGCVLDGVRYTNGESFQPNCRYNCTCIDGTVGCTPLCLSPRPPRLWCRQPRHVRVPGQCCEQWVCDDDARRPRQTALLDTRAFAASGAVEQRYENCIAYTSPWSPCSTTCGLGISTRISNVNARCWPEQESRLCNLRPCDVDIQLHIKAGKKCLAVYQPEEATNFTLAGCVSTRTYRPKYCGVCTDNRCCIPYKSKTISVDFQCPEGPGFSRQVLWINACFCNLSCRNPNDIFADLESYPDFEEIANP[here human IgG1 Fc without letters]
notes: also called mWISP-1-IgG; WISP-1-Fc
